Here are results for one molecule from article PMC7616460, “Skraban-Deardorff intellectual disability syndrome-associated mutations in WDR26 impair CTLH E3 complex assembly” (FEBS letters, 2024).

Chains of the proteins cited; added tags and fusions are not shown. Lines headed by an entry give the natural chain unless they say otherwise; changes in a name come on top. A line that says so, or that is headed by a name, gives the form on record, which may keep a tag or linker. Residues count along the entry.
UniProt Q9H7D7: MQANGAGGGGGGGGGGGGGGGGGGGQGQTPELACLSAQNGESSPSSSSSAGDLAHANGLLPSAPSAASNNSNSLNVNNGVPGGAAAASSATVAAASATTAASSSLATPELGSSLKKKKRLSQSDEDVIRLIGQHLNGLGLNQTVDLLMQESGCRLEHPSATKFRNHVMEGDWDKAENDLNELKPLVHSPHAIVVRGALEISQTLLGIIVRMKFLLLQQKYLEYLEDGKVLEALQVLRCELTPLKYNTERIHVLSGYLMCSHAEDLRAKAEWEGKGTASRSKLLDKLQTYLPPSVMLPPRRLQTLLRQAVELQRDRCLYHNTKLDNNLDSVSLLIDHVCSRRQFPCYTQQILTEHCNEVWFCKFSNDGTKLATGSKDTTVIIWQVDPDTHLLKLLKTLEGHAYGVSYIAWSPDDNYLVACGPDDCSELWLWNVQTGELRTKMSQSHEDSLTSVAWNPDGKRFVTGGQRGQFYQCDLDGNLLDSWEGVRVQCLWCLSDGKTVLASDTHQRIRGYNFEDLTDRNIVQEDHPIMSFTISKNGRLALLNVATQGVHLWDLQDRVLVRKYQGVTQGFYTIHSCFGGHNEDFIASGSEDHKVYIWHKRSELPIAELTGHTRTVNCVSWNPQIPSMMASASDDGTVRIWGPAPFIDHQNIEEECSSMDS
HA-tagged WDR26 variant Ind23 (Trp359*): residues 1-358 of Q9H7D7
HA-tagged WDR26 variant Ind19 (Gln348*): residues 1-347 of Q9H7D7
HA-tagged WDR26 variant Ind21 (Arg510Gln) (Q9H7D7, form named): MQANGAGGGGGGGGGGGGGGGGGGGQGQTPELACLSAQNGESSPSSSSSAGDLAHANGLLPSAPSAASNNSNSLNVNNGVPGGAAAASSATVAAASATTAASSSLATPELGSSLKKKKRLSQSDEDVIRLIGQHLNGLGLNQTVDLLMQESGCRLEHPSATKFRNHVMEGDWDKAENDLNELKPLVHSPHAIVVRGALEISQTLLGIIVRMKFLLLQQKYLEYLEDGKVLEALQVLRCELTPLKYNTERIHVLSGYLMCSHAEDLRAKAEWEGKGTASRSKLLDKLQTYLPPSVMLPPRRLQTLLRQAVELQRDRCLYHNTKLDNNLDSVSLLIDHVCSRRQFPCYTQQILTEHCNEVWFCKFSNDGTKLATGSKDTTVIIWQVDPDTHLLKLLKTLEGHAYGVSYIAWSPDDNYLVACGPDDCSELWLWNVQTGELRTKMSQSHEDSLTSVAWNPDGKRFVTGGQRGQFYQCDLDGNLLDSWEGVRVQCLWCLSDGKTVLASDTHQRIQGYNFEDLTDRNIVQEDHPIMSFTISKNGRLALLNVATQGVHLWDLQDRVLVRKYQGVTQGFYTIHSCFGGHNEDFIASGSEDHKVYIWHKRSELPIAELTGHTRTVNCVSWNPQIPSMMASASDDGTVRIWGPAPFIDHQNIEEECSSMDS
HA-tagged WDR26 variant Ind9 (Ser254Arg) (Q9H7D7, form named): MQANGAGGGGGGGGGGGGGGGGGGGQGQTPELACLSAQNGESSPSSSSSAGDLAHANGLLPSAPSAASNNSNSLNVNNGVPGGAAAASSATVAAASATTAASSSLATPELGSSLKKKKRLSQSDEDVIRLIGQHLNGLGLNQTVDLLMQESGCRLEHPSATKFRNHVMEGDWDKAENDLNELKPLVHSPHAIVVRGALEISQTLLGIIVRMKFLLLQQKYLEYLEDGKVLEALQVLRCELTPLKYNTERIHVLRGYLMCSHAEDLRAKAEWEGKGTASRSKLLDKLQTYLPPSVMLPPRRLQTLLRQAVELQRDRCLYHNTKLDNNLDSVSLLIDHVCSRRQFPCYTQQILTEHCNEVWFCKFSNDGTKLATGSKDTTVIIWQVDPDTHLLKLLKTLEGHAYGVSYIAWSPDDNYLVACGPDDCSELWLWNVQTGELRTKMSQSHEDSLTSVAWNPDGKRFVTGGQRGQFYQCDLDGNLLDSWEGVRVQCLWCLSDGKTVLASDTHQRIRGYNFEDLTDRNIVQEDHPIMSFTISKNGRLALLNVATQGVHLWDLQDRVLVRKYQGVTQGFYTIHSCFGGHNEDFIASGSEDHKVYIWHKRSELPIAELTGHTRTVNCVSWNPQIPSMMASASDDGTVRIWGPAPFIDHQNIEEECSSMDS
HA-tagged WDR26 variant Ind6 (Asp284Asn) (Q9H7D7, form named): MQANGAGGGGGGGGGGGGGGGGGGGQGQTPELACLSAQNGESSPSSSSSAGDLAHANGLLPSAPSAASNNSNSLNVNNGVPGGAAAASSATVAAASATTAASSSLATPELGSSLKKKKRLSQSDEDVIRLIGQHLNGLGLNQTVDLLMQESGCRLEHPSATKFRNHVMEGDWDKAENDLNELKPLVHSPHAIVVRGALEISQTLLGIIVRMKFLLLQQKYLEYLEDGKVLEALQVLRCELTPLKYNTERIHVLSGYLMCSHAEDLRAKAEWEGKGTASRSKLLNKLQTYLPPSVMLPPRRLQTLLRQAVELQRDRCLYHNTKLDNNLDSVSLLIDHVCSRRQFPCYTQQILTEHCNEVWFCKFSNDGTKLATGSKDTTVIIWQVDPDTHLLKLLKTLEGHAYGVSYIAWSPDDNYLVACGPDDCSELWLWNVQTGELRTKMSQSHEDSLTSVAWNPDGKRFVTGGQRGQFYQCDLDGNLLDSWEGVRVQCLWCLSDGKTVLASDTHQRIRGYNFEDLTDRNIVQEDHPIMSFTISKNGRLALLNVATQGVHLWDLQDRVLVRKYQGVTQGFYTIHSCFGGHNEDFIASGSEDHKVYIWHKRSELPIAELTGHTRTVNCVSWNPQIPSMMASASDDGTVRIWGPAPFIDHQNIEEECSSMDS

Results are given in words; binding and its absence hold for the method and conditions named. Binding seen in cells or lysates may run through a third protein. Some binding calls cover weakened binding; strength is not graded here. Sequences can lack the tags named with a protein.

Test in all cases: co-IP; HEK293 Flp-In T-Rex WDR26-/- cells transiently co-transfected with HA-WDR26 variants and 3xFlag-HBP1; anti-HA agarose beads 2 h 4 °C; immunoblot
In general terms: Immunoblotting shows a protein as a band on a membrane.

The target in test [1] is HA-tagged WDR26 variant Ind23 (Trp359*) (human) (UniProt Q9H7D7).
Test [2] addresses HA-tagged WDR26 variant Ind21 (Arg510Gln) (human) (UniProt Q9H7D7).
The target in test [3] is HA-tagged WDR26 variant Ind9 (Ser254Arg) (human) (UniProt Q9H7D7).
The target in test [4] is HA-tagged WDR26 variant Ind19 (Gln348*) (human) (UniProt Q9H7D7).
Test [5] concerns the target HA-tagged WDR26 (wildtype, isoform 1) (human) (UniProt Q9H7D7).
In test [6] the target is HA-tagged WDR26 variant Ind6 (Asp284Asn) (human) (UniProt Q9H7D7).

B1: 3xFlag-tagged HMG-Box Transcription Factor 1 (protein, UniProt O60381 1-514)
chain: MVWEVKTNQMPNAVQKLLLVMDKRASGMNDSLELLQCNENLPSSPGYNSCDEHMELDDLPELQAVQSDPTQSGMYQLSSDVSHQEYPRSSWNQNTSDIPETTYRENEVDWLTELANIATSPQSPLMQCSFYNRSSPVHIIATSKSLHSYARPPPVSSSSKSEPAFPHHHWKEETPVRHERANSESESGIFCMSSLSDDDDLGWCNSWPSTVWHCFLKGTRLCFHKGSNKEWQDVEDFARAEGCDNEEDLQMGIHKGYGSDGLKLLSHEESVSFGESVLKLTFDPGTVEDGLLTVECKLDHPFYVKNKGWSSFYPSLTVVQHGIPCCEVHIGDVCLPPGHPDAINFDDSGVFDTFKSYDFTPMDSSAVYVLSSMARQRRASLSCGGPGGQDFARSGFSKNCGSPGSSQLSSNSLYAKAVKNHSSGTVSATSPNKCKRPMNAFMLFAKKYRVEYTQMYPGKDNRAISVILGDRWKKMKNEERRMYTLEAKALAEEQKRLNPDCWKRKRTNSGSQQH
As to B1, the binding entry is given as “no binding” in test [1]; “no binding” in test [2]; “no binding” in test [3]; “no binding” in test [4]; “binds” in test [5]; “binds” in test [6].
